Results reported in the supplement of paper PMC3334620.
Over roughly 33,000 sequences, “E-score (-0.5 to 0.5)” has its median near -0.056; the highest 2% begin near 0.38. The list shows a part of the results.

The sequences below were run against Stb4 (UniProt P50104) (assay: PBM E-score (8-mer binding enrichment) (E-score (-0.5 to 0.5)); higher = stronger / more preferred TF binding; most listed sequences are background and not binding sites). Settings: protein concentration: 200 nM; construct: GST-DNA-binding domain.
Method: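 Universal 'all 10-mer' protein binding microarrays (Agilent AMADID 015681) probed with GST-tagged S. cerevisiae TFs (full-length or DBD) made by in vitro transcription/translation (PURExpress), about 100-200 nM. Bound TF was detected with fluorescent anti-GST. Each ungapped 8-mer (which stands for itself and its reverse complement) is scored by the PBM enrichment score (E-score), a modified Wilcoxon-Mann-Whitney statistic from -0.5 to +0.5, computed with the Universal PBM Analysis Suite. Scale: above 0.35 generally sequence-specific binding.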

Sequence	PBM E-score
GTTTGCTA	-0.0608
GAACTTAA	0.0793
AGGCACGC	-0.0406
TTAACGAA	-0.0137
ATCATTGA	-0.111
CTTCCGCC	0.297
ATGAGAGC	-0.0665
GTATGACA	-0.0492
CATAGTAC	-0.0194
GGTTCCGA	0.468
GAACCCTC	0.114
CGAACTAG	0.121
CAGTTTCA	-0.239
CGTCTATC	-0.00175
CTTGTAGA	-0.174
GTACCCAC	0.169
GCAGTGAA	-0.0782
AACGGTGT	-0.125
CACACATA	-0.0365
CAGTACTC	-0.194
CTGTGCAA	-0.258
CCGTGACC	0.165
TACGTCAA	-0.167
CCTGAGCG	-0.242
AACTAATG	-0.0585

Sequence	PBM E-score
ATTCCTTA	-0.192
ACCATTAA	0.0503
AACCCAGA	-0.198
AATTTGCC	0.0997
CTTCGACC	-0.0721
ATACCAAT	-0.00151
GATTAGCC	0.131
CAATGCCG	0.331
AAATACGG	0.0246
TATTCTCA	-0.166
AGGCTCTC	-0.104
CCCTAGTC	-0.24
GAAGGCTC	-0.00996
CTGACGCA	-0.298
CCACCGTA	-0.0836
TCTTCGAA	-0.201
CTAAGAAC	0.118
CACATGAA	-0.0962
ATAAGAAC	0.114
CAGCACGG	0.161
ACGAGTAG	-0.11
AACTTATA	0.0985
ATCAGCGG	0.209
GCAACACA	-0.121
AACCATGT	0.0503

Sequence	PBM E-score
ACCGAATG	0.217
AGTCTAAC	-0.163
AAACGCCG	0.287
GAGAGGGC	-0.274
ACCTCTGA	-0.0188
CCGTCAAG	0.118
CAACGGGG	-0.121
ATCACCAT	-0.0633
AACAATAA	0.13
CATTTAAC	-0.0923
CTCGCCAC	-0.119
CCCAAGGA	-0.173
ATTCACCG	0.259
GTATCGAC	-0.064
GATGCATC	0.0326
AAAGGCCC	-0.0153
AGCATTCA	-0.0667
ATCCATAA	0.0647
AGTGATTC	0.0168
ACGGTAAT	0.045
ACATCAGA	-0.145
CCCCTGGC	-0.00158
CGAGATGA	0.21
CAGTGAAG	-0.214
AACCTGGC	-0.224

Sequence	PBM E-score
ATCTTGGG	-0.206
GACTAATC	0.0642
GTCCCAAC	-0.189
GTAGAGTA	-0.0535
GGTCACAA	0.00311
ACTAATTC	0.13
CAAGGTGC	-0.132
ACCATCAC	-0.0712
GCGAACTA	0.053
AGCATTGC	-0.0432
CGACCGGC	0.119
CGGCAAAG	0.282
GGGTACAA	0.153
ACGTTTCA	-0.0513
AGACGTGC	-0.0523
GCGTAAGA	0.0257
AGCCTGTA	-0.0937
AACGGAGG	0.203
GACTACCC	0.205
AATAGGCG	0.112
AAAATCCA	-0.0988
AACTCTGT	-0.208
CGCCTACC	0.0138
GTCCTACA	0.135
AGCATAAG	-0.0221

Sequence	PBM E-score
ACTTGATC	-0.0308
GGACGTTA	0.0417
AATCTGTA	-0.166
ATCACATC	0.161
AAACATCT	-0.0959
GGTATCCA	0.0955
AGTAATCG	0.028
AACTAGCA	0.0498
GTTGGTCA	-0.00814
ACATCCTG	-0.0816
AGATCTGC	-0.158
AGACTGCT	-0.297
GCGTTCCC	0.197
GGGACTAC	0.134
CTTGGTAC	-0.0021
AATATGCC	0.0963
CTGATTAA	0.0362
CTTTTCAC	-0.191
CAGTAATA	-0.0578
CGAGCGGA	0.367
CAATGCAC	-0.0284
CCACAGTA	-0.254
ACGGGCAG	0.00374
GAGATTAA	-0.0853
ATTTGTTA	0.0653

Sequence	PBM E-score
AGAGGCTC	-0.095
CATTAATG	-0.105
AATCGTTC	-0.0546
ATCTGAAG	-0.0674
AGTTGATG	-0.273
CCTGGGTC	-0.126
AAGTACAG	-0.344
CGCAGCAA	-0.172
AAATTGCT	-0.149
GGGCGCTA	-0.15
ATCCCAAG	-0.0181
ACCCACAC	0.0508
TGTCTAAA	-0.228
CGTCCAAG	-0.115
ATCTTATC	0.0563
GAGGGCGC	-0.0042
CATAGATG	-0.0909
GGAGAGCA	-0.139
GACGCAGA	0.0644
GGAAGGAC	0.13
GAGTTAAA	-0.112
TTAAATAA	0.178
ACAAGGCG	-0.0823
TCGCGCAA	-0.185
ATCCGTAA	0.35

Sequence	PBM E-score
CGTGGAGC	0.0476
CAGGAATG	-0.259
CGCGCCTA	0.0819
GAGCAGAA	-0.0843
TGAGTAAA	-0.204
ACTTGGAT	-0.0862
GGATAGGA	0.184
AGATGTCG	0.0571
ACCCGCGA	0.085
AACTCGGG	0.383
AGGCGGCA	-0.106
CCTAAGAC	-0.175
GGCAACCC	0.072
CATGGTCG	0.0755
AACACATT	0.0917
CAACACTA	-0.108
GAAATGGA	-0.0648
ACTATGCT	-0.165
AGTTGTCG	-0.00015
ATAATTGG	-0.0516
ATATGAAA	-0.0762
AATATAGT	-0.0188
TCCGACCA	0.388
CTGCAGTC	-0.0539
TATCAGAA	0.0123

Sequence	PBM E-score
ATGAGTTC	0.129
ATAACCGG	0.281
AGACTATG	-0.17
GTATTATA	0.0782
AAAAAAAT	0.115
GAAAACGA	-0.137
CTCAGAGC	-0.294
TGGTAACA	-0.132
AAATTACC	0.178
AGAGTAGC	-0.183
GAGAAAAC	-0.00747
CTTCCGCA	0.331
CTATGGAA	0.0451
ACATATCA	-0.118
CTGGAAAG	-0.225
CGAGTGGC	0.0432
CAAACATG	-0.147
ACCTTGGC	-0.132
AGCCAAAA	-0.0824
ACGTCGTC	0.0122
CACAATAC	-0.0502
TGCGTCCA	-0.226
AGTTCGTA	0.0255
CTTGGTTC	0.124
CACAGAAA	-0.041

Sequence	PBM E-score
CCCAAGTC	-0.161
CGGCATAA	0.285
GACTATGA	-0.231
CCTCTCAC	-0.157
TTAACCAA	-0.222
GAAACGCA	-0.0307
CTCAGGGC	-0.0989
CTGCCTCC	-0.0686
AAGCCGGG	0.264
TCCCTACA	-0.122
AAAGGGGC	-0.197
GAATACCA	-0.0726
GTAGGAAC	-0.154
CGTTGTGA	-0.0537
CTAGGGCA	-0.217
AGTCTCGC	-0.0759
AAAGCCTA	-0.301
TCTCTTCA	0.00232
TAGGTGAA	-0.00505
ATGTGTTA	-0.199
CTCCCCAG	-0.192
GCGACCAA	-0.183
CGCGTAAA	0.0289
AACGGCAA	0.0937
CATTCATA	-0.0352

Sequence	PBM E-score
ACCCTAAG	-0.185
CCCGGTAC	0.247
CCTGCACA	-0.208
ATGCATAA	-0.243
CTTGGTGC	-0.201
ATGCATCC	0.0963
GAATCCTA	0.00817
TCAACACA	-0.197
AGTCCAAT	0.0202
CTCAATAA	-0.0997
CTCCTCAC	-0.146
GTAGTCCA	-0.0809
GCGCGGCA	0.154
TACCGTAA	0.0568
AAAGGGTC	-0.0434
AGGGCACG	-0.0855
GCTATCGA	-0.0697
ACCCTCTA	-0.324
ATCCGGAA	0.436
AACGACAC	-0.0524
ATAGTCCC	-0.0622
AACTGCGT	-0.294
ACATGGAT	-0.183
CATCTTTA	-0.0825
AAAATTAT	0.067

Sequence	PBM E-score
ATCTTCAT	0.0298
CTTGTTTC	-0.134
GATGAACA	-0.021
CCTCGTGC	-0.0632
CAAGCGAC	-0.148
GCTTAGCA	-0.0884
ACTCATAG	-0.0865
CCTCGGAA	0.484
GCACTAGA	-0.0878
ATACGTTA	-0.293
AACGATAG	0.015
ATCAGAGC	-0.0707
CTAGCCCC	-0.0513
ACCTGCTA	0.0269
AGTTGAGG	0.0277
ACTTATCC	0.275
AAGGTTTC	-0.0293
GCCTGGAC	-0.0755
ATTGAATC	-0.153
AGAGAAGG	-0.0976
ATTTCACG	0.133
AGACTAAG	-0.154
GAGCTTGA	-0.136
CGGAACCC	0.359
GGAGTCAC	0.0653

Sequence	PBM E-score
GCCTTTCA	-0.114
GTCCGCAA	0.0958
ATGGCAGG	0.0505
AGACAAGG	-0.118
ACTATGAA	-0.193
ATGGGCGA	-0.079
CGCAGCTC	-0.13
AGGTCGCG	0.0154
CGAGAGGC	0.113
ACCTACCA	-0.174
GCGTCTAA	-0.109
AAATACTC	0.121
ATGGCGGG	0.259
CGCTAGAA	-0.154
CGGCAGCA	0.257
CGACTTCC	0.101
GCGCTTAA	-0.18
TCGTGGCA	-0.255
ACACTGGA	-0.105
GCTGTATA	-0.288
AACGCCGT	-0.0885
AATCAGCG	0.048
CCTATTGC	-0.0913
AAATACCT	-0.0131
GCATGGGA	-0.0392

Sequence	PBM E-score
AAATTCTC	-0.0141
CGACCTGA	-0.127
GATCCCAA	-0.0342
ATAACTTC	0.0791
GCCACTGA	-0.115
CCCTTGAG	-0.134
GAAGGTTA	0.0955
AAGGAGGA	-0.124
CCATAACG	-0.0859
GGAAAATA	0.211
GAGCCTGA	-0.181
AACGTCTA	-0.181
GACATACA	0.0632
ACTAACTG	-0.111
GCCAGAGA	-0.0545
CATGAGGG	0.0385
GTAGAGGA	-0.0967
CATTTGTC	-0.0746
CATACTGA	-0.0487
ACCCTCGG	0.426
ACTTAGGG	-0.0175
CGGTTTGC	0.2
AAAGATTG	-0.192
GGGCGGCA	0.294
CTGAATCC	0.0406

Sequence	PBM E-score
AGCCTCAG	-0.23
CCGAGCGG	0.431
AGGAATCG	0.0767
CATGGTGC	-0.125
GTCATTTA	-0.171
ACCGCGAT	0.0549
AGGCGATC	-0.288
AAGATCCC	0.126
GGATGAGA	0.0903
CGTGGTGC	-0.135
ATTGGTGA	-0.253
ATTACACA	-0.13
GAGTTCAA	-0.09
CCACATGC	-0.341
CAGGAGCA	-0.163
GCGGCCGA	0.217
CATCGTCC	0.0921
AAGACTGC	-0.178
TAAATAGA	-0.0801
